Laboratory results as given in the supplement of paper PMC4967469.
IC50 is the fitted dose that halves viability relative to control wells, and lower means more sensitive; fits outside the tested doses are given as limits. The AUC spans the tested range (256-fold, ending at the top dose) of the same fit; it is 1 without any effect and falls as sensitivity rises. Any top dose called inferred was derived from the fitted curves, not read from the paper.

The cell lines below were run with CC1=C(C(=O)Nc2cc3cn[nH]c3cc2F)C(c2ccc(C(F)(F)F)cc2)CC(=O)N1 [GSK429286A] (assay: Viability of human cancer cell lines after 72 h of drug (GDSC screen)). Settings: top dose inferred.
Experimental: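 Human cancer cell lines in 384-well plates, medium with 10% serum, drug for 72 h over a 256-fold dose range (nine 2-fold or five 4-fold steps up to the top dose). Adherent lines were fixed and stained with the nucleic acid dye Syto60, suspension lines read with resazurin; signal relative to control wells, capped at 0 and 100%. One two-parameter sigmoid per drug and line, fitted in a mixed model over all curves with the slope shared within a line.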

Cell Line | AUC | IC50 [µM]
FU97 (stomach, adherent, top dose 20 µM) | 0.986 | > 20
KYSE-520 (oesophagus, adherent, top dose 20 µM) | 0.981 | > 20
SK-OV-3 (ovary, adherent, top dose 20 µM) | 0.954 | > 20
SK-MEL-24 (melanoma, adherent, top dose 20 µM) | 0.983 | > 20
NCI-H1568 (lung adenocarcinoma, adherent, top dose 20 µM) | 0.967 | > 20
ME-1 (acute myeloid leukaemia, suspension, top dose 20 µM) | 0.987 | > 20
KARPAS-620 (haematopoietic neoplasm, suspension, top dose 20 µM) | 0.954 | > 20
OCI-AML5 (acute myeloid leukaemia, suspension, top dose 20 µM) | 0.891 | 19.9
NCI-SNU-16 (stomach, suspension, top dose 20 µM) | 0.991 | > 20
COR-L321 (lung, suspension, top dose 20 µM) | 0.953 | > 20
NCI-H1395 (lung adenocarcinoma, adherent, top dose 20 µM) | 0.961 | > 20
EW-1 (Ewing sarcoma, semi-adherent, top dose 20 µM) | 0.976 | > 20
HuH-7 (liver, adherent, top dose 20 µM) | 0.979 | > 20
H4 (glioma, adherent, top dose 20 µM) | 0.973 | > 20
LU-135 (small cell lung carcinoma, suspension, top dose 20 µM) | 0.899 | 17.8
CCRF-CEM (lymphoblastic leukaemia, suspension, top dose 20 µM) | 0.95 | > 20
NCI-H1581 (large cell lung carcinoma, semi-adherent, top dose 20 µM) | 0.983 | > 20
MONO-MAC-6 (acute myeloid leukaemia, suspension, top dose 20 µM) | 0.883 | > 20
CADO-ES1 (Ewing sarcoma, suspension, top dose 20 µM) | 0.801 | 9.97
BHY (head and neck, adherent, top dose 20 µM) | 0.985 | > 20

Cell Line | AUC | IC50 [µM]
KYM-1 (rhabdomyosarcoma, adherent, top dose 20 µM) | 0.991 | > 20
NCI-H2347 (lung adenocarcinoma, adherent, top dose 20 µM) | 0.983 | > 20
647-V (bladder, adherent, top dose 20 µM) | 0.987 | > 20
PANC-04-03 (pancreas, adherent, top dose 20 µM) | 0.976 | > 20
KURAMOCHI (ovary, adherent, top dose 20 µM) | 0.984 | > 20
COLO-680N (oesophagus, adherent, top dose 20 µM) | 0.986 | > 20
SK-UT-1 (soft tissue, adherent, top dose 20 µM) | 0.989 | > 20
NCI-H322M (lung adenocarcinoma, suspension, top dose 20 µM) | 0.986 | > 20
AM-38 (glioma, semi-adherent, top dose 20 µM) | 0.881 | > 20
COR-L95 (small cell lung carcinoma, adherent, top dose 20 µM) | 0.97 | > 20
NCI-H661 (large cell lung carcinoma, adherent, top dose 20 µM) | 0.955 | > 20
8505C (thyroid, adherent, top dose 20 µM) | 0.953 | > 20
NCI-H1355 (lung adenocarcinoma, adherent, top dose 20 µM) | 0.959 | > 20
VMRC-RCZ (kidney, adherent, top dose 20 µM) | 0.711 | 5.5
A253 (head and neck, adherent, top dose 20 µM) | 0.985 | > 20
SK-MEL-30 (melanoma, adherent, top dose 20 µM) | 0.982 | > 20
LU-99A (large cell lung carcinoma, adherent, top dose 20 µM) | 0.98 | > 20
NCI-H727 (lung carcinoid, adherent, top dose 20 µM) | 0.962 | > 20
SK-MG-1 (glioma, adherent, top dose 20 µM) | 0.987 | > 20
DND-41 (T-cell leukaemia, suspension, top dose 20 µM) | 0.905 | > 20
